Screen size: about 48,000 compounds; about 450 (0.94%) were called active. Another 19% or so got no clear call; they are omitted. Calls follow the shape of the dose curve; as a rule, active = well fitted inhibition curve with a large enough effect; inconclusive = small, poorly fitted or top-dose-only effect; inactive = no such curve, though single readings can be large or run the other way. Some of the results follow.
assay: Primary qHTS for Identification of Small Molecule Inhibitors of Huntingtin Promoter Activity; details: HEK293 HTT promoter firefly luciferase reporter (activity 0% = vehicle and -100% = no light), 24 h; series mostly up to 57.5 µM; activity change, negative = inhibition: at the top concentration; also: nearly all actives have a fitted effect of over 50% in size
Outline: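 Firefly luciferase readout (Dual-Glo, 10 min RT) after 24 h, 37 °C compound exposure (final up to 57.5 uM) of HEK293 reporter cells cultured 24 h beforehand; PTC124 at 50 uM final as control inhibitor; activity scaled vehicle 0%, zero RLU -100%.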

Activity change, negative = inhibition, inactive:
CCCCOc1ccc(C(=O)NCc2cn3cccc(C)c3n2)cc1 -10.5%
Cc1cccc(-c2nc3scc(CCNS(=O)(=O)c4ccc(F)c(C(F)(F)F)c4)n3n2)c1 -27.5%
Cc1ccc(C(=O)Nc2ccc(C(=O)O)cc2)cc1S(=O)(=O)N1CCC(C)CC1 -22.9%
CCCCOc1ccc(C(=O)NCCc2sc3nc(-c4ccc(OC)cc4)nn3c2C)cc1 7.51%
CCOc1cc2c(cc1OCC)C(CC(=O)O)N(C(=O)Nc1ccc(Br)c(C)c1)CC2 (configuration not stated) 7.77%
CCN(CC)c1nn2c(=O)c(C(=O)NCCc3ccccc3C)cnc2s1 -17.1%
Cc1ccc(NC(=O)/C=C/c2ccco2)cc1F 48.3%
CCOc1ccc(N(C)C(=O)C2CCN(S(=O)(=O)c3c(C)noc3/C=C/c3ccc(C)cc3)CC2)cc1 -14.9%
Cc1c(C(=O)Nc2ccc(F)c(Cl)c2)sc2nc3n(c(=O)c12)CCC3 38.2%
O=C(NCCc1ccccc1)C1CCN(c2nc3ccccc3nc2C(F)(F)F)CC1 5.63%
CCCCCSc1nnc2c(n1)[nH]c1c(C)cccc12 -25.8%
COCCn1c(SCC(=O)c2ccc(C)cc2)nc2cc(C(=O)NC3CCCC3)ccc2c1=O -3.16%
FC(F)(F)c1cc(Nc2nc3ccccc3c3nncn23)ccc1Cl -7.53%
CCCNC(=O)c1cnn(-c2ccc(C)c(C)c2)c1C1CCN(C(=O)OC(C)(C)C)CC1 -8.68%
CCCOc1ccc(C(=O)N2CCC(c3nc4ccccc4s3)CC2)cc1 -10.2% [at 11.5 µM]
CCc1ccc(/C=C(/C#N)c2nc(-c3ccc(C)cc3)cs2)cc1 1.99%
O=S(=O)(NCC(c1ccco1)N1CCN(c2ccccc2)CC1)c1cc(F)ccc1F (configuration not stated) -35.7%
Cc1cc(C)cc(N2CCn3c2nc2c3c(=O)n(Cc3c(F)cccc3Cl)c(=O)n2C)c1 -1.85%
O=C(Cn1c(=O)c(CNc2ccccc2)cc2cc3c(cc21)OCCO3)Nc1ccccc1Cl -27.2%
CCc1ccc2oc(-c3ccc(C)c(NC(=O)Cc4ccccc4)c3)nc2c1 -8.85%
CC(C)(C)OC(=O)N1CCC(c2c(C(=O)NCCN3CCOCC3)cnn2-c2cccc(Cl)c2)CC1 -5.19%
Cn1c(=O)c2c(nc(CN3CCN(c4ccccc4F)CC3)n2Cc2ccc(F)cc2)n(C)c1=O -32.5%
O=c1c(S(=O)(=O)c2ccccc2)cn(Cc2ccccc2)c2cc(N3CCCC3)c(F)cc12 -10.5%
COc1ccc(OC)c(C2CC(=O)Nc3c2c(=O)[nH]c2nc4ccccc4n32)c1 (configuration not stated) -6.63%
N#Cc1ccc(NC(=O)COCc2cc(-c3ccco3)on2)cc1 -7.26%
CCOC(=O)C1CCN(CCC(=O)Nc2ccccc2OC)CC1 -6.26%
Cc1cccc(Nc2nnc(-c3ccc(C)c(S(=O)(=O)N4CCN(C)CC4)c3)c3ccccc23)c1 -27.1%
Cc1ccc(Cl)cc1NC(=O)Cn1c(=O)n(C(C)C)c(=O)c2oc3ccccc3c21 5.24%
CC(C)CCNC(=O)C(=O)Nc1c2c(nn1-c1ccc(Cl)cc1)CSC2 -6.03%
Cc1ccc(-n2nc(-c3ccccc3)c3cnc4cc5c(cc4c32)OCO5)cc1C -3.23%
CC(=O)Nc1cccc(NC(=O)CSc2ccc(-c3sc(-c4ccccc4)nc3C)nn2)c1 8.05%
O=C(O)CCc1ccc(-c2ccccc2)n1-c1ccc(C(=O)O)cc1 -16.1%
CCOC(=O)C(C)Sc1nc(-c2ccccc2)ccc1C#N (configuration not stated) -12.4%
CCC(C)NC(=O)c1c(C)oc2nc(C)nc(N3CCOCC3)c12 (configuration not stated) 3.07%
COc1ccccc1NC(=O)C1CCCN(c2ncnc3onc(-c4ccc(F)cc4)c23)C1 (configuration not stated) -23.9%
Cc1ccc(NC(=O)c2ccc3snnc3c2)cc1C 30.1%
COC(=O)c1ccccc1NC(=O)c1nn(-c2ccc(OC)cc2)c(=O)c2c1c1ccccc1n2C -28.4%
COc1ccc(-c2cc(C(=O)NCCc3ccc(OC)c(OC)c3)c3c(-c4ccc(F)cc4)[nH]nc3n2)cc1 -27.4%
Cc1cc(C)n(-c2nc(C)c(C)c(=O)n2CC(=O)Nc2cccc([N+](=O)[O-])c2)n1 -18.9%
CN[C@H](CC(C)C)C(=O)N[C@H]1C(=O)N[C@@H](CC(N)=O)C(=O)N[C@@H]2C(=O)N[C@H]3C(=O)N[C@H](C(=O)N[C@H](C(=O)O)c4cc(O)cc(O)c4-c4cc3ccc4O)[C@H](O)c3ccc(c(Cl)c3)Oc3cc2cc(c3O[C@@H]2O[C@H](CO)[C@@H](O)[C@H](O)[C@@H]2O[C@H]2C[C@](C)(N)[C@H](O)[C@H](C)O2)Oc2ccc(cc2Cl)[C@H]1O -4.47%
CCOC(=O)Cc1c(C(=O)OCC)nnc2c(-c3ccccc3)c(C)nn12 -13.9%
COCCNc1oc(-c2ccc(OC)cc2)nc1C#N 43.2%
CCN(CC)C(=O)Cn1c(=O)n(CCc2ccccc2)c(=O)c2ccccc21 -11%
COc1cccc(N2CCN(c3ncnc4c3c(-c3ccccc3)cn4-c3cccc(C(F)(F)F)c3)CC2)c1 -26.2%
CCCNC(=O)N1[C@H](c2cccs2)[C@@H](C)C(=O)[C@@H](C)[C@@H]1c1cccs1 -18.3%
COc1ccc(S(=O)(=O)NCC(c2ccc(N(C)C)cc2)N2CCc3ccccc32)cc1F (configuration not stated) -18.3%
Cc1cc(C)n2nc(CNS(=O)(=O)c3ccccc3)nc2n1 5.05%
Cc1cccc(NC(=O)CN2C(=O)CSc3ccc(S(=O)(=O)N4CCCC4)cc32)c1C -3.99%
COc1cccc(NC(=O)CSc2c3c(nc4ccccc24)CCCC3)c1 6.96%
O=C(Nc1ccccc1C(F)(F)F)N1CC=C(c2c[nH]c3ccccc23)CC1 -16.9%
COC(=O)CC(=O)CSc1nc2cc(C(=O)NCC(C)C)ccc2c(=O)n1CCc1ccccc1 -20.6%
COc1ccc(-c2onc(C)c2C)cc1S(=O)(=O)N1CCN(c2cc(C)ccc2C)CC1 3.46%
Cc1c(Cl)ccc2sc(N3CCN(C(=O)C4CC4)CC3)nc12 -22%
Cc1nn(C(=O)c2cccc([N+](=O)[O-])c2C)c(C)c1S(=O)(=O)N1CCCCCC1 -3.4%
Cc1cccc(NC(=O)N2CCC(CN3CCCCCC3)CC2)c1C -11.8%
CC1CCN(S(=O)(=O)c2ccc3c(c2)CCN3C(=O)Nc2ccc(Br)cc2F)CC1 -0.777%
CCOc1ccccc1C(=O)N1CCC(c2nc3ccccc3o2)CC1 -20.3%
